Measurements reported in the supplement of paper PMC9446081.
About 220 (0.56%) of roughly 39,000 compounds showed activity. This is one part of the list.

Each molecule was assayed on Escherichia coli K-12 BW25113 (assay: relative growth (OD600 normalised to plate interquartile mean) (fraction); higher = less growth inhibition, active = 0.2 or less). Settings: 50 µM; LB; incubation time: overnight (16-24 h).
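Further: static incubation at 37 °C against the wild-type strain, values averaged over two biological replicates.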

SMILES	relative growth
COc1ccc(S(=O)(=O)Nc2ccc3c(c2)C(=O)N([C@@H](C)CO)C[C@H](C)[C@H](CN(C)S(=O)(=O)c2ccccc2)O3)cc1	inactive: 1.04
C[C@H]1CN([C@@H](C)CO)C(=O)c2c(c3ccccc3n2C)-c2ccccc2CO[C@H]1CN(C)C(=O)CCC(F)(F)F	inactive: 1.02
NS(=O)(=O)c1cc2c(cc1Cl)N=C(CSCc1ccccc1)NS2(=O)=O	inactive: 1.03
COc1ccc(S(=O)(=O)Nc2ccc3c(c2)CC(=O)N([C@@H](C)CO)C[C@@H](C)[C@H](CN(C)S(=O)(=O)c2cccs2)O3)cc1	inactive: 1.02
COc1ccc(NC(=O)N(C)C[C@@H]2OCCCC[C@@H](C)Oc3ccc(NC(=O)Cc4ccccc4)cc3C(=O)N([C@H](C)CO)C[C@H]2C)cc1	inactive: 0.989
C[C@@H]1CCCCO[C@@H](CN(C)Cc2ccc3c(c2)OCO3)[C@H](C)CN([C@@H](C)CO)C(=O)c2cc(NC(=O)C3CCCCC3)ccc2O1	inactive: 1.01
C[C@@H]1c2ncc(CN3CCN(C)CC3)n2CCN1S(C)(=O)=O	inactive: 0.986
Cc1ccc(-c2ccc3c(c2)O[C@H](CN(C)C(=O)CN(C)C)[C@@H](C)CN([C@H](C)CO)S3(=O)=O)cc1	inactive: 1
C[C@H](CO)N1C[C@H](C)[C@@H](CN(C)S(=O)(=O)c2ccc(F)cc2)Oc2c(NC(=O)c3ccncc3)cccc2C1=O	inactive: 1.01
C[C@H](CO)N1C[C@H](C)[C@H](CN(C)C(=O)Nc2ccc3c(c2)OCO3)OCCCC[C@H](C)Oc2ccc(NC(=O)NC3CCCCC3)cc2C1=O	inactive: 0.999
CCc1nc2ccc(C(=O)NCc3ccccc3OC)cn2c1N(CC)Cc1cccc(Br)c1	inactive: 1.01
C[C@@H]1CCCCO[C@@H](CN(C)S(C)(=O)=O)[C@@H](C)CN([C@H](C)CO)C(=O)c2cc(NC(=O)Nc3cccc4ccccc34)ccc2O1	inactive: 1.01
CC(C)NC(=O)Nc1ccc2c(c1)C(=O)N([C@@H](C)CO)C[C@@H](C)[C@H](CN(C)C(=O)Nc1ccccc1)OCCCC[C@@H](C)O2	inactive: 1.02
C[C@@H]1CCCCO[C@@H](CN(C)S(=O)(=O)c2ccc(F)cc2)[C@@H](C)CN([C@H](C)CO)C(=O)c2cc(NC(=O)Nc3ccc(F)cc3)ccc2O1	inactive: 1
Cc1noc(C)c1NC(=O)Nc1cccc2c1O[C@H](CN(C)Cc1ccc(-c3ccccc3)cc1)[C@@H](C)CN([C@H](C)CO)C2=O	inactive: 1
COc1ccc(NC(=O)N(C)C[C@H]2Oc3ccc(NC(=O)Nc4ccc(C(F)(F)F)cc4)cc3CC(=O)N([C@H](C)CO)C[C@H]2C)cc1	inactive: 0.991
COc1ccc(NC(=O)Nc2ccc3c(c2)CC(=O)N([C@@H](C)CO)C[C@@H](C)[C@H](CN(C)Cc2ccc(Oc4ccccc4)cc2)O3)cc1	inactive: 0.93
C[C@H]1CN([C@@H](C)CO)S(=O)(=O)c2ccc(C#Cc3ccc(F)cc3)cc2O[C@@H]1CN(C)S(=O)(=O)c1ccc(F)cc1	inactive: 1.04
C[C@@H]1CCCCO[C@H](CN(C)C(=O)Nc2ccc3c(c2)OCO3)[C@@H](C)CN([C@@H](C)CO)C(=O)c2cc(NS(=O)(=O)c3ccccc3)ccc2O1	inactive: 1.01

SMILES	relative growth
C[C@@H]1CN([C@@H](C)CO)C(=O)Cc2cc(NC(=O)CCCN(C)C)ccc2O[C@@H]1CN(C)S(=O)(=O)c1cccs1	inactive: 0.982
C[C@H](CO)N1C[C@H](C)[C@H](CN(C)S(=O)(=O)c2ccccc2)Oc2c(NC(=O)Nc3cccc4ccccc34)cccc2C1=O	inactive: 1
C[C@@H](NC(=O)C[C@@H]1CC[C@@H](NC(=O)CN2CCOCC2)[C@H](CO)O1)c1ccccc1	inactive: 0.915
C[C@@H]1CCCCO[C@H](CN(C)C(=O)Nc2cccc3ccccc23)[C@@H](C)CN([C@H](C)CO)C(=O)c2cc(NC(=O)C3CCCCC3)ccc2O1	inactive: 0.993
CC(C)NC(=O)Nc1ccc2c(c1)C(=O)N([C@H](C)CO)C[C@H](C)[C@@H](CN(C)C(=O)Nc1ccc(F)cc1)OCCCC[C@@H](C)O2	inactive: 0.995
C[C@H]1CN([C@@H](C)CO)C(=O)c2cc(NC(=O)Cn3cnnn3)ccc2O[C@H]1CN(C)CC1CC1	inactive: 1.04
COc1cccc(S(=O)(=O)N(C)C[C@H]2Oc3cc(C4=CCCC4)ccc3S(=O)(=O)N([C@H](C)CO)C[C@H]2C)c1	inactive: 1.02
NS(=O)(=O)c1cc(-c2nn[nH]n2)c(NCc2cccs2)cc1Cl	inactive: 0.965
C[C@H](CO)N1C[C@H](C)[C@H](CN(C)Cc2ccc(C(F)(F)F)cc2)OCCCC[C@H](C)Oc2ccc(NS(=O)(=O)c3ccc(Cl)cc3)cc2C1=O	inactive: 1.05
CC1CCC2C(C)(CO)C(O)CCC2(C)C12CCC(CO)(CCO)O2 (stereo unspecified)	inactive: 0.981
C[C@@H]1CN([C@@H](C)CO)C(=O)Cc2cc(NC(=O)C3CC3)ccc2O[C@H]1CN(C)S(=O)(=O)c1cn(C)cn1	inactive: 1
O=C(C[C@@H]1C[C@@H]2c3cc(NC(=O)Nc4ccc(C(F)(F)F)cc4)ccc3O[C@@H]2[C@H](CO)O1)NC1CCCCC1	inactive: 0.959
Cc1noc(C)c1S(=O)(=O)N(C)C[C@@H]1Oc2c(NS(=O)(=O)c3cn(C)cn3)cccc2C(=O)N([C@@H](C)CO)C[C@H]1C	inactive: 0.99
CN1C(=O)c2cc(NC(=O)c3ccc(C(F)(F)F)cc3)ccc2OC[C@@H]2O[C@H](CC(=O)NC3Cc4ccccc4C3)CC[C@@H]21	inactive: 1.01
CNC(=O)C[C@@H]1CC[C@@H]2[C@H](COC[C@@H](O)CN2C(=O)Nc2ccc3c(c2)OCO3)O1	inactive: 0.995
C[C@@H]1CN([C@@H](C)CO)C(=O)c2cc(NS(C)(=O)=O)ccc2O[C@@H](C)CCCCO[C@@H]1CN(C)S(=O)(=O)c1cn(C)cn1	inactive: 1
Cc1noc(C)c1NC(=O)Nc1ccc2c(c1)C(=O)N([C@H](C)CO)C[C@@H](C)[C@@H](CN(C)S(=O)(=O)c1ccccc1)OCCCC[C@@H](C)O2	inactive: 1.01
C[C@H]1CN([C@@H](C)CO)S(=O)(=O)c2ccc(C#Cc3cccnc3)cc2O[C@@H]1CN(C)C(=O)Nc1ccc2c(c1)OCO2	inactive: 1.01
COc1ccc(NC(=O)N(C)C[C@H]2Oc3ccc(NC(=O)CCN4CCOCC4)cc3CC(=O)N([C@@H](C)CO)C[C@@H]2C)cc1	inactive: 0.952

SMILES	relative growth
Cc1noc(C)c1NC(=O)Nc1ccc2c(c1)C(=O)N([C@H](C)CO)C[C@H](C)[C@H](CN(C)Cc1ccncc1)OCCCC[C@H](C)O2	inactive: 1.01
COc1ccccc1CNC(=O)C[C@H]1CC[C@H]2[C@@H](COC[C@H](O)CN2C(=O)Nc2ccc(F)cc2)O1	inactive: 0.988
O=C(C[C@H]1CC[C@@H]2[C@H](COC[C@H](O)CN2S(=O)(=O)c2cccc(Cl)c2)O1)NC1Cc2ccccc2C1	inactive: 0.986
COc1ccccc1C#Cc1cnc2c(c1)C(=O)N([C@H](C)CO)C[C@@H](C)[C@@H](CN(C)C(=O)CC1CC1)O2	inactive: 1.01
C[C@@H]1CN([C@@H](C)CO)C(=O)Cc2cc(NC(=O)CCCN(C)C)ccc2O[C@H]1CN(C)Cc1ccc(Oc2ccccc2)cc1	inactive: 0.784
C[C@H](CO)N1C[C@H](C)[C@@H](CN(C)S(C)(=O)=O)Oc2ccc(NC(=O)Cn3cnnn3)cc2CC1=O	inactive: 0.934
Cc1noc(C)c1NC(=O)N(C)C[C@H]1Oc2c(NC(=O)Cn3cnnn3)cccc2C(=O)N([C@H](C)CO)C[C@@H]1C	inactive: 0.966
Cc1cccc(S(=O)(=O)N2C[C@@H](O)COC[C@@H]3O[C@@H](CC(=O)NCCCN4CCOCC4)CC[C@H]32)c1	inactive: 1
CC(C)NC(=O)Nc1ccc2c(c1)C(=O)N([C@H](C)CO)C[C@@H](C)[C@H](CN(C)Cc1ccc(Oc3ccccc3)cc1)O2	inactive: 1.01
C[C@H](CO)N1C[C@H](C)[C@H](CN(C)Cc2ccc(Oc3ccccc3)cc2)Oc2ccc(NC(=O)Nc3cccc4ccccc34)cc2C1=O	inactive: 1.02
C[C@H]1CN([C@@H](C)CO)C(=O)c2cccc(NC(=O)NC3CCCCC3)c2O[C@@H]1CN(C)S(=O)(=O)c1cn(C)cn1	inactive: 0.99
C[C@H]1CN([C@@H](C)CO)C(=O)Cc2cc(NC(=O)Cc3cn(C)c4ccccc34)ccc2O[C@@H]1CN(C)C(=O)Nc1cccc2ccccc12	inactive: 1.04
COc1ccc([Si](C)(C)[C@H]2[C@H](CC(=O)N3CCC[C@H]3CO)O[C@@]3(C(=O)N(Cc4cccc(N5C(=O)c6cccc7cccc5c67)c4)c4ccccc43)[C@@H]2C)cc1	inactive: 1.02
C[C@H]1CN([C@@H](C)CO)C(=O)Cc2cc(NC(=O)c3ccncc3)ccc2O[C@@H]1CN(C)Cc1ccc(C(=O)O)cc1	inactive: 1
Cc1ccc(S(=O)(=O)N(C)C[C@@H]2Oc3ccc(NC(=O)Cn4cnnn4)cc3C(=O)N([C@H](C)CO)C[C@H]2C)cc1	inactive: 0.986
Cn1cnc(S(=O)(=O)N2C[C@H](O)COC[C@H]3O[C@H](CC(=O)NC4CCCC4)CC[C@@H]32)c1	inactive: 1.04
CO[C@@H]1CN(C)C(=O)c2ccc(NS(=O)(=O)c3cn(C)cn3)cc2OC[C@@H](C)N(Cc2cccc(F)c2)C[C@@H]1C	inactive: 1
CC(C)NC(=O)N(C)C[C@H]1Oc2ccc(NC(=O)CCCN(C)C)cc2C(=O)N([C@@H](C)CO)C[C@H]1C	inactive: 0.977
